In all, about 360,000 compounds went through this assay and about 16,000 (4.4%) were called active. Inconclusive means that the source gave no clear call. Such entries were picked first, then a sample of the others. Calls follow the shape of the dose curve; as a rule, active = well fitted inhibition curve with a large enough effect; inconclusive = small, poorly fitted or top-dose-only effect; inactive = no such curve, though single readings can be large or run the other way. Where the call is inconclusive, the potency comes from a doubtful curve fit.
target: Bromodomain adjacent to zinc finger domain protein 2B (Homo sapiens) (UniProt Q9UIF8); assay: qHTS Assay for Inhibitors of BAZ2B; conditions: AlphaScreen BAZ2B-H3K14Ac peptide displacement; series mostly up to 114 µM; also: nearly all actives have a fitted effect of over 60% in size
Sequence of UniProt Q9UIF8 (Q9UIF8 whole entry, looked up, the tested form may be a part): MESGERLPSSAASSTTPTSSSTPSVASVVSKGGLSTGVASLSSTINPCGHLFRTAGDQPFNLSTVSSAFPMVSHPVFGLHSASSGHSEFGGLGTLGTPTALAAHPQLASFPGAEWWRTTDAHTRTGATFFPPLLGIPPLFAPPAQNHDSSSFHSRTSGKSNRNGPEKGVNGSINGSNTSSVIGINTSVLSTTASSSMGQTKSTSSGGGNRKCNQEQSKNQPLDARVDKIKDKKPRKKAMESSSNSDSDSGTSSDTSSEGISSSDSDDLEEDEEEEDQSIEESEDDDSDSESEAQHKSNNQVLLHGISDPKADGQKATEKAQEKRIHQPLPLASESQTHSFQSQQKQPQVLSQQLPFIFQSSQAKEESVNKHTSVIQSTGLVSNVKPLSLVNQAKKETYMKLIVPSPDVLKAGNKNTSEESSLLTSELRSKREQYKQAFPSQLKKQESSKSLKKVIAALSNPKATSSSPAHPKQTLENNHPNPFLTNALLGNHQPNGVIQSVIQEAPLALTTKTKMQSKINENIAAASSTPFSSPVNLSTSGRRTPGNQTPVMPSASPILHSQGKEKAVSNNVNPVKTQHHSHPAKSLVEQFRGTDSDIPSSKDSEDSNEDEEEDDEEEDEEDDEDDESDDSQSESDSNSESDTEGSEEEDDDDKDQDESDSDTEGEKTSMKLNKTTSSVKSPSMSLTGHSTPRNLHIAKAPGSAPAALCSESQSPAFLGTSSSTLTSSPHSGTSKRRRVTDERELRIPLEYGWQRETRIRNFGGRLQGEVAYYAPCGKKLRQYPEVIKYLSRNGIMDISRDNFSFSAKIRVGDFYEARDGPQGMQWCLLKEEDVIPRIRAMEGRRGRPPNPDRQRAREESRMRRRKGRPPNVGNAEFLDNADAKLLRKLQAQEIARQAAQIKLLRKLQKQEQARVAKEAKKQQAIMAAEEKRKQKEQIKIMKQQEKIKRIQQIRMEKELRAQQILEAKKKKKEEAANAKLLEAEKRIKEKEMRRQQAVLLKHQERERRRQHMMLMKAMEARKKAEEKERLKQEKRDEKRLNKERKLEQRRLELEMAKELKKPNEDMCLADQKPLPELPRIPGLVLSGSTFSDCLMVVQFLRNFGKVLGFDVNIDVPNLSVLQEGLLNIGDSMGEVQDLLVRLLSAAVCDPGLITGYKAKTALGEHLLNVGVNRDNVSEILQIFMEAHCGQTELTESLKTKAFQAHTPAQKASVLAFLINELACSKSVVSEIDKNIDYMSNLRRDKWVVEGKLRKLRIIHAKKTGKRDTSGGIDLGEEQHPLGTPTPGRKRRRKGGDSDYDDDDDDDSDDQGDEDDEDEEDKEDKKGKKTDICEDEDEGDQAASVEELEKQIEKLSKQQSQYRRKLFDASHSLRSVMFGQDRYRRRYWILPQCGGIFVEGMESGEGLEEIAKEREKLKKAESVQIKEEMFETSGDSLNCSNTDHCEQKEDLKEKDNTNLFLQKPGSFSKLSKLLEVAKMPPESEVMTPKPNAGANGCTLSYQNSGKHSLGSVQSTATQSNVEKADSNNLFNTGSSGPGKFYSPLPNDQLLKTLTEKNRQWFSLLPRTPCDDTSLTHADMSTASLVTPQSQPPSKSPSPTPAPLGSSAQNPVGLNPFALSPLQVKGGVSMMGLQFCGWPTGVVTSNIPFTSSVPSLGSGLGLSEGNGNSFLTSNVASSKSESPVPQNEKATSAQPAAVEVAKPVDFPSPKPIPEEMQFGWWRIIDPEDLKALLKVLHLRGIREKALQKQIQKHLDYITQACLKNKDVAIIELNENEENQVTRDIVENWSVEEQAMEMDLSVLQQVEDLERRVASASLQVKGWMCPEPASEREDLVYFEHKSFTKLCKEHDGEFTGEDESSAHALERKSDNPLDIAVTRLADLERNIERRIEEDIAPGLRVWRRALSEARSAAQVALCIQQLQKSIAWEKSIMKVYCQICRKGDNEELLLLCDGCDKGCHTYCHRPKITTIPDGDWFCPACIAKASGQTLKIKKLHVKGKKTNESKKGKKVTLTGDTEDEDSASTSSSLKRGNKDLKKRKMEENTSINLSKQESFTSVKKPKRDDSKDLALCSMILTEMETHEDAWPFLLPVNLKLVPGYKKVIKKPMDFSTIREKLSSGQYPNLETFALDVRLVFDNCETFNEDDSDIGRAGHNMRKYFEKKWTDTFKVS
Method in brief: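 BAZ2B 50 nM plus b-H3(5-23)K14Ac 50 nM, PBS pH 7.4/0.01% Tween-20, 30 min RT; compound added (max 110 uM), 30 min RT; streptavidin donor/Ni-chelate acceptor beads 10 ug/mL final, 20 min dark; AlphaScreen read.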
Potency is read from the fitted curve at half-maximal effect; tags tell the direction and shape of the fitted curve.

Structure (SMILES) | Potency
CCOc1ccc(CCNC(=O)CN2CCN(Cc3ccc(F)cc3)C2=O)cc1OCC | inconclusive: 89.1 µM [inhibitor, single point]
C[N+]1=C(/C=C/Nc2ccccc2Cl)C(C)(C)c2ccccc21 | inactive
COc1ccc(C(=O)NCC(c2ccco2)S(=O)(=O)c2cccs2)cc1 (centres undefined) | inconclusive: 89.1 µM [inhibitor, single point]
CCCn1c(/C=C/c2cc[n+](C)cc2)nc2ccccc21 | inconclusive: 89.1 µM [inhibitor, single point]
CC(C)c1ccc(NC(=O)Cc2c(C(=O)O)n(C)c3ccccc23)cc1 | inactive
CC(=O)c1cc(C#N)c(N(C)Cc2ccccc2)nc1C | inconclusive: 70.8 µM [inhibitor, partial curve, poor fit]
O=C(O)CCc1ccc(-c2ccc(Br)cc2)n1Cc1ccco1 | active: 50.1 µM
Cc1cc(O)c(C(=O)/C=C/c2cccc([N+](=O)[O-])c2)c(=O)o1 | inconclusive: 70.8 µM [inhibitor, single point]
Cn1cc(C(=O)c2ccc(Cl)cc2Cl)cc1C(=O)N/N=C(\N)COc1ccc(Cl)cc1 | inconclusive: 20 µM [inhibitor, full curve]
COc1cccc(N2CCN(c3ncnc4onc(-c5ccc(Cl)cc5)c34)CC2)c1 | inactive
COc1ccc(-c2csc3ncnc(Cl)c23)cc1 | inactive
Cc1nnc(N/N=C/c2cccc(C(F)(F)F)c2)n1N | inconclusive: 89.1 µM [inhibitor, single point]
CCOC(=O)Cn1nnnc1C(CC)N(Cc1ccccc1)Cc1cc2cc(C)ccc2[nH]c1=O (centres undefined) | inconclusive: 31.6 µM [inhibitor, single point]
C=CCOc1cccc(C(=O)N2CCCC(Nc3ccc4c(c3)OCCO4)C2)c1 (centres undefined) | active: 44.7 µM
Cc1cccc(N2CCN(C(=O)c3nn(C)c4c3CS(=O)(=O)c3ccccc3-4)CC2C)c1 (centres undefined) | inconclusive: 50.1 µM [inhibitor, partial curve]
CC(=O)NC1=NN(C(C)=O)C(C)(c2ccccc2)S1 (centres undefined) | active: 44.7 µM
Cc1[nH]n(-c2ccccc2)c(=O)c1C=Nc1ccc(S(=O)(=O)N(C)C)cc1 | inactive
Cc1ccc(C2=C/C(=C/c3cccnc3)C(=O)O2)c(C)c1 | inactive
COc1ccc(S(=O)(=O)n2c([N+](=O)[O-])cnc2C)c(C)c1C | inconclusive: 79.4 µM [inhibitor, single point]
CC(C)Cn1c(N)c(C(=O)COC(=O)C2Cc3ccccc3CN2S(C)(=O)=O)c(=O)n(C)c1=O (centres undefined) | inconclusive: 79.4 µM [inhibitor, single point]
COc1cccc(CNC(=O)CN2C(=O)CSc3ccc(S(=O)(=O)N4CCCC4)cc32)c1 | inactive
COC(=O)Nc1ccc2c(c1)Nc1ccccc1CC2 | inconclusive: 44.7 µM [inhibitor, partial curve]
CCN1CCc2c(C#N)c(NCc3ccccc3)nc(N(CC)CC)c2C1 | inconclusive: 50.1 µM [inhibitor, partial curve]
O=C(c1ccccc1-c1ncc[nH]1)N1CCc2c([nH]c3ccccc23)C1c1ccccn1 (centres undefined) | active: 28.2 µM
CN(CC(=O)Nc1c(Cl)cccc1Cl)C(=O)c1cccn1C | inconclusive: 79.4 µM [inhibitor, single point]

Structure (SMILES) | Potency
O=C1COc2ccc(C(=O)COc3ccc([N+](=O)[O-])cc3)cc2N1 | inactive
CCCOC(=O)c1cc(-c2ccc(C=O)o2)ccc1Cl | inactive
CN(C)c1ccc(CNC(=O)c2sc3ncccc3c2-n2cccc2)cc1 | active: 17.8 µM
Cc1ccccc1-n1cc(-c2ccc(Br)cc2)nc1SCC(N)=O | inconclusive: 44.7 µM [inhibitor, partial curve]
S=c1[nH]nc(Cn2nnc3ccccc32)n1-c1ccc(Cl)cc1 | inactive
O=C(CC1C(=O)N(c2ccccc2)C(=O)N1Cc1ccco1)Nc1ccccc1 (centres undefined) | inactive
CCOc1ccc(-c2nc(C#N)c(N3CCOCC3)o2)cc1 | inconclusive: 79.4 µM [inhibitor, single point]
Cc1cc(C)cc(NC(=O)CCN2C(=O)c3ccccc3Sc3ncccc32)c1 | inactive
Cn1cccc1/C=C1\SC(=Nc2ccc(O)cc2)NC1=O | inactive
COc1cc(CNCCO)cc(Br)c1OCc1ccccc1 | inactive
O=c1[nH]c2ccccc2cc1CN(CC1CCCO1)S(=O)(=O)c1ccccc1 (centres undefined) | inactive
CCOc1ccccc1C(=O)N[C@H](C(=O)Nc1nc2c(s1)CCCC2)C(C)C | inconclusive: 35.5 µM [inhibitor, partial curve]
COc1ccccc1NC(=O)c1ccc(-c2ccccc2[N+](=O)[O-])o1 | inconclusive: 25.1 µM [inhibitor, full curve]
CN(C)c1ccc(C(=O)NCc2ccc3c(c2)CCN3C(=O)c2ccccc2)cc1 | inactive
CC(=O)Nc1ccc(S(=O)(=O)NC(CSc2ccc(C(=O)O)cc2[N+](=O)[O-])C(=O)O)cc1 (centres undefined) | inconclusive: 89.1 µM [inhibitor, single point]
CCOc1ccc(-c2c(C(=O)N/N=C/c3ccncc3)nnn2-c2nonc2N)cc1 | inconclusive: 70.8 µM [inhibitor, single point]
O=c1c2ccccc2nc(COc2ccccc2)n1/N=C/c1ccc(O)c(O)c1 | active: 44.7 µM
Cc1c(S(=O)(=O)c2cccc(Cl)c2)nnn1-c1cccc(C(F)(F)F)c1 | inactive
O=C(O)/C=C/c1ccc([N+](=O)[O-])o1 | active: 56.2 µM
Nc1nc(-c2ccccc2)c(N=Nc2cccc3ccccc23)s1 | active: 8.91 µM
COc1cc(Cl)cc(C2NC(=S)NC(c3ccccc3)=C2C(C)=O)c1OCC(=O)O (centres undefined) | inconclusive: 89.1 µM [inhibitor, single point]
Nc1ccc(-c2nc3ccccc3[nH]2)cc1 | inactive
CC(C)c1nnc(NC(=O)CCS(=O)(=O)c2ccccc2)s1 | inconclusive: 39.8 µM [inhibitor, single point]
O=C(O)c1cc(-n2c(/C=C\c3ccc(F)cc3)nc3ccccc3c2=O)ccc1Cl | inactive

From PubChem BioAssay AID504333 (National Center for Advancing Translational Sciences (NCATS), 2011)
